Reference: the supplement of paper PMC10369915
The list shows a part of the results. Rule as the data show it: active = 3.2 or more and inactive = the rest. Most of these values are background signal.

molecular target: SHP2 C-SH2 domain E139D; experiment: enrichment score (SH2-bound / input frequency) (ratio); bacterial display of known human phosphotyrosine sites (pTyr-Var adds point mutants) read by sequencing; higher = stronger binding; tyrosines were phosphorylated by kinases first; details: peptide library: pTyr-Var
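Also: displayed peptides selected on beads carrying the immobilized SH2 domain, with library peptides lacking any tyrosine serving as negative controls.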

Row | Binder | enrichment score
1 | ATARPYSPFII [LRP5_Y1528_R1529S_YF] | inactive: 0.908
2 | NGSFLYVIISQ [LRP1B_Y1988_R1987L] | inactive: 0.594
3 | ATARPYRPYII [LRP5_Y1528] | inactive: 1
4 | YSIAQYCCRMG [LRRK2_Y2023_G2019S] | inactive: 1.46
5 | CQASLYPSNHD [LRIG1_Y996_G993A] | inactive: 1.06
6 | RAEAPYLLVSN [LRIG1_Y1054_Q1053P] | inactive: 0.93
7 | IYQASYYRRGD [LTK_Y676_R673Q] | inactive: 0.33
8 | QFNPEYVQQAS [LRRC7_Y1058_H1054Y_YF] | inactive: 0.802
9 | RGLQVYHKRNA [LRP2_Y2010_R2012K] | inactive: 0.485
10 | RPYSPYIIRGM [LRP5_Y1531_R1529S] | inactive: 0.479
11 | LKKLEYLNLAL [LRRC6_Y70] | inactive: 1.24
12 | TLARLYHPDST [LRIG1_Y1029] | inactive: 0.697
13 | YGIAQYCCRMG [LRRK2_Y2023] | inactive: 1.46
14 | ATVRPYRPYII [LRP5_Y1528_A1525V] | inactive: 0.891
15 | MARDIYQASYY [LTK_Y672_R673Q] | inactive: 1.07
16 | RPFSPYIIRGM [LRP5_Y1531_R1529S_YF] | inactive: 0.693
17 | VCDSNYSASRW [LRP5_Y1552_D1551N] | inactive: 1.07
18 | RPFRPYIIRGM [LRP5_Y1531_YF] | inactive: 0.224
19 | LEISPYMLSGR [LRRK2_Y1718] | inactive: 0.935

molecular target: SHP2 C-SH2 domain wild-type; experiment: as above; details: peptide library: pTyr-Var

Row | Binder | enrichment score
20 | ATARPYSPFII [LRP5_Y1528_R1529S_YF] | inactive: 0.578
21 | NGSFLYVIISQ [LRP1B_Y1988_R1987L] | inactive: 0.894
22 | ATARPYRPYII [LRP5_Y1528] | inactive: 0.769
23 | YSIAQYCCRMG [LRRK2_Y2023_G2019S] | inactive: 1.2
24 | CQASLYPSNHD [LRIG1_Y996_G993A] | inactive: 1.05
25 | RAEAPYLLVSN [LRIG1_Y1054_Q1053P] | inactive: 0.711
26 | IYQASYYRRGD [LTK_Y676_R673Q] | inactive: 0.341
27 | QFNPEYVQQAS [LRRC7_Y1058_H1054Y_YF] | inactive: 0.64
28 | RGLQVYHKRNA [LRP2_Y2010_R2012K] | inactive: 0.49
29 | RPYSPYIIRGM [LRP5_Y1531_R1529S] | inactive: 0.377
30 | LKKLEYLNLAL [LRRC6_Y70] | inactive: 1.59
31 | TLARLYHPDST [LRIG1_Y1029] | inactive: 0.61
32 | YGIAQYCCRMG [LRRK2_Y2023] | inactive: 1.32
33 | ATVRPYRPYII [LRP5_Y1528_A1525V] | inactive: 0.535
34 | MARDIYQASYY [LTK_Y672_R673Q] | inactive: 0.867
35 | RPFSPYIIRGM [LRP5_Y1531_R1529S_YF] | inactive: 0.522
36 | VCDSNYSASRW [LRP5_Y1552_D1551N] | inactive: 1.11
37 | RPFRPYIIRGM [LRP5_Y1531_YF] | inactive: 0.21
38 | LEISPYMLSGR [LRRK2_Y1718] | inactive: 0.814

molecular target: SHP2 N-SH2 domain L43F; experiment: as above; details: peptide library: pTyr-Var

Row | Binder | enrichment score
39 | ATARPYSPFII [LRP5_Y1528_R1529S_YF] | inactive: 0.821
40 | NGSFLYVIISQ [LRP1B_Y1988_R1987L] | inactive: 0.618
41 | ATARPYRPYII [LRP5_Y1528] | inactive: 0.971
42 | YSIAQYCCRMG [LRRK2_Y2023_G2019S] | inactive: 1.22
43 | CQASLYPSNHD [LRIG1_Y996_G993A] | inactive: 0.849
44 | RAEAPYLLVSN [LRIG1_Y1054_Q1053P] | inactive: 0.757
45 | IYQASYYRRGD [LTK_Y676_R673Q] | inactive: 0.362
46 | QFNPEYVQQAS [LRRC7_Y1058_H1054Y_YF] | inactive: 0.874
47 | RGLQVYHKRNA [LRP2_Y2010_R2012K] | inactive: 0.429
48 | RPYSPYIIRGM [LRP5_Y1531_R1529S] | inactive: 1
49 | LKKLEYLNLAL [LRRC6_Y70] | active: 5.93
50 | TLARLYHPDST [LRIG1_Y1029] | inactive: 0.729
51 | YGIAQYCCRMG [LRRK2_Y2023] | inactive: 1.35
52 | ATVRPYRPYII [LRP5_Y1528_A1525V] | inactive: 0.762
53 | MARDIYQASYY [LTK_Y672_R673Q] | inactive: 0.939
54 | RPFSPYIIRGM [LRP5_Y1531_R1529S_YF] | inactive: 0.548
55 | VCDSNYSASRW [LRP5_Y1552_D1551N] | inactive: 0.884
56 | RPFRPYIIRGM [LRP5_Y1531_YF] | inactive: 0.373
57 | LEISPYMLSGR [LRRK2_Y1718] | inactive: 2

molecular target: SHP2 N-SH2 domain T42A; experiment: as above; details: peptide library: pTyr-Var

Row | Binder | enrichment score
58 | ATARPYSPFII [LRP5_Y1528_R1529S_YF] | inactive: 0.661
59 | NGSFLYVIISQ [LRP1B_Y1988_R1987L] | inactive: 0.718
60 | ATARPYRPYII [LRP5_Y1528] | inactive: 0.637
61 | YSIAQYCCRMG [LRRK2_Y2023_G2019S] | inactive: 1.19
62 | CQASLYPSNHD [LRIG1_Y996_G993A] | inactive: 0.714
63 | RAEAPYLLVSN [LRIG1_Y1054_Q1053P] | inactive: 0.845
64 | IYQASYYRRGD [LTK_Y676_R673Q] | inactive: 0.279
65 | QFNPEYVQQAS [LRRC7_Y1058_H1054Y_YF] | inactive: 0.552
66 | RGLQVYHKRNA [LRP2_Y2010_R2012K] | inactive: 0.55
67 | RPYSPYIIRGM [LRP5_Y1531_R1529S] | inactive: 0.463
68 | LKKLEYLNLAL [LRRC6_Y70] | active: 11.3
69 | TLARLYHPDST [LRIG1_Y1029] | inactive: 0.47
70 | YGIAQYCCRMG [LRRK2_Y2023] | inactive: 1.27
71 | ATVRPYRPYII [LRP5_Y1528_A1525V] | inactive: 0.559
72 | MARDIYQASYY [LTK_Y672_R673Q] | inactive: 0.776
73 | RPFSPYIIRGM [LRP5_Y1531_R1529S_YF] | inactive: 0.485
74 | VCDSNYSASRW [LRP5_Y1552_D1551N] | inactive: 0.618
75 | RPFRPYIIRGM [LRP5_Y1531_YF] | inactive: 0.28
76 | LEISPYMLSGR [LRRK2_Y1718] | inactive: 0.803

molecular target: SHP2 N-SH2 domain T52S; experiment: as above; details: peptide library: pTyr-Var

Row | Binder | enrichment score
77 | ATARPYSPFII [LRP5_Y1528_R1529S_YF] | inactive: 0.682
78 | NGSFLYVIISQ [LRP1B_Y1988_R1987L] | inactive: 0.61
79 | ATARPYRPYII [LRP5_Y1528] | inactive: 0.767
80 | YSIAQYCCRMG [LRRK2_Y2023_G2019S] | inactive: 1.28
81 | CQASLYPSNHD [LRIG1_Y996_G993A] | inactive: 0.843
82 | RAEAPYLLVSN [LRIG1_Y1054_Q1053P] | inactive: 0.948
83 | IYQASYYRRGD [LTK_Y676_R673Q] | inactive: 0.337
84 | QFNPEYVQQAS [LRRC7_Y1058_H1054Y_YF] | inactive: 0.607
85 | RGLQVYHKRNA [LRP2_Y2010_R2012K] | inactive: 0.609
86 | RPYSPYIIRGM [LRP5_Y1531_R1529S] | inactive: 0.414
87 | LKKLEYLNLAL [LRRC6_Y70] | active: 8.06
88 | TLARLYHPDST [LRIG1_Y1029] | inactive: 0.422
89 | YGIAQYCCRMG [LRRK2_Y2023] | inactive: 1.47
90 | ATVRPYRPYII [LRP5_Y1528_A1525V] | inactive: 0.716
91 | MARDIYQASYY [LTK_Y672_R673Q] | inactive: 0.883
92 | RPFSPYIIRGM [LRP5_Y1531_R1529S_YF] | inactive: 0.668
93 | VCDSNYSASRW [LRP5_Y1552_D1551N] | inactive: 0.893
94 | RPFRPYIIRGM [LRP5_Y1531_YF] | inactive: 0.244
95 | LEISPYMLSGR [LRRK2_Y1718] | inactive: 1.93

molecular target: SHP2 N-SH2 domain wild-type; experiment: as above; details: peptide library: pTyr-Var

Row | Binder | enrichment score
96 | ATARPYSPFII [LRP5_Y1528_R1529S_YF] | inactive: 0.857
97 | NGSFLYVIISQ [LRP1B_Y1988_R1987L] | inactive: 1.18
98 | ATARPYRPYII [LRP5_Y1528] | inactive: 1.09
99 | YSIAQYCCRMG [LRRK2_Y2023_G2019S] | inactive: 1.23
100 | CQASLYPSNHD [LRIG1_Y996_G993A] | inactive: 1.02
101 | RAEAPYLLVSN [LRIG1_Y1054_Q1053P] | inactive: 0.87
102 | IYQASYYRRGD [LTK_Y676_R673Q] | inactive: 0.341
103 | QFNPEYVQQAS [LRRC7_Y1058_H1054Y_YF] | inactive: 0.991
104 | RGLQVYHKRNA [LRP2_Y2010_R2012K] | inactive: 0.562
105 | RPYSPYIIRGM [LRP5_Y1531_R1529S] | inactive: 0.669
106 | LKKLEYLNLAL [LRRC6_Y70] | inactive: 2.3
107 | TLARLYHPDST [LRIG1_Y1029] | inactive: 0.591
108 | YGIAQYCCRMG [LRRK2_Y2023] | inactive: 1.33
109 | ATVRPYRPYII [LRP5_Y1528_A1525V] | inactive: 0.714
110 | MARDIYQASYY [LTK_Y672_R673Q] | inactive: 0.94
111 | RPFSPYIIRGM [LRP5_Y1531_R1529S_YF] | inactive: 0.608
112 | VCDSNYSASRW [LRP5_Y1552_D1551N] | inactive: 0.899
113 | RPFRPYIIRGM [LRP5_Y1531_YF] | inactive: 0.221
114 | LEISPYMLSGR [LRRK2_Y1718] | inactive: 0.855
